Reference: the supplement of paper PMC11417369
± gives the standard deviation of the averaged measurements. Some of the results follow.

test system: PfAP2-EXP AP2 domain (GST-tagged); assay: gcPBM binding intensity (ln(normalized median fluorescence intensity)); higher = stronger DNA binding
Procedure, shortened: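 Probes on an Agilent 4 × 180k array were primer-extended, double-stranded and 36 bp long, taken from intergenic genomic regions, with negative controls added. GST-tagged P. falciparum DNA-binding domains from E. coli, about 25 μg on average, were applied to the array for 1 h in 1× PBS containing 1% milk, 0.2 mg/ml BSA, 0.5% salmon testes DNA and 0.03% Triton X-100. Binding intensity, obtained after Alexa488 anti-GST antibody detection and a 488 nm scan, is the highest Masliner-normalised natural-log median intensity across replicate spots of either probe orientation.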

Row | Sequence | gcPBM binding intensity (ln)
1 | GTATAATATGAACACACACACACACCCAAAAAAAAA [CACACA_site5152] | 8.79 ± 0.42
2 | TTATGGAACCCCATTCGTACATAAATATTTTATATA [XGTACX_site7112] | 8.4 ± 0.35
3 | ATACATATTAACAAGGTGCAAATGGATTTCATAAAA [GTGCAC_site9775] | 8.995 ± 0.035
4 | TTTTTTTTTTTGTGAGTGCACGTATGAAGAGAAAAA | 9.63 ± 0.3
5 | ATGTCTATATATTAAGGTACACATATATGCTATTCA [XGTACX_site6008] | 8.47 ± 0.39
6 | AAAATATACATAAACACACACAAAACGTTTAAGAAA [CACACA_site1071] | 8.84 ± 0.66
7 | ATATTAATTTTTATTACACACTCTCAATTTTTATTT [CACACA_site58] | 8.73 ± 0.38
8 | GTTTAACTGTTTTATACACACAATGTATCCAATAAA [CACACA_site5612] | 8.88 ± 0.43
9 | TTTTAGTTAATTCATGCATGTAAAGTTTTATTTATA [TGCATGCA_site252] | 9.01 ± 0.2
10 | AAAAAAAAAAAAAAAGTACACACTTTTGCGTACATG [CACACA_site3097] | 8.44 ± 0.13
11 | TTTATGCACGCGTGCACACACATATGAAAAAAGGTA [CACACA_site3315] | 9.48 ± 0.13
12 | TATGTTTAAATATATTGTACGCACGTATGTTTTTAA [XGTACX_site1108] | 8.52 ± 0.24
13 | TATATATTAAAAATAGTGCAAAATAATATATATATA [GTGCAC_site9716] | 9.845 ± 0.049
14 | AATACCTTTTAATAATGTACAAACAAAAATTAGAGA [XGTACX_site6850] | 8.71 ± 0.45
15 | ATATATATATATATATGTACATATTCATCTTATTCT [XGTACX_site1537] | 10 ± 0.42
16 | AAGGGGAGAAAAATAAACGAAATATATACATACATA [XGTACX_negctrl_site88] | 8.64 ± 0.47
17 | ACAAATAAATATATATGTACATATATTTTTTTATTT [XGTACX_site2989] | 8.56 ± 0.37
18 | TTTTATTTATATTATACACACAAGGAAAAAAAAAAA [CACACA_site7690] | 8.64 ± 0.31
19 | TTTTGATATAAATATTAGATTAATAAATAAAAAAAT [CACACA_negctrl_site1635] | 8.37 ± 0.42
20 | TTAAAATAGATATTAGTGCAAAAAAAAAAAAATAAA | 8.8 ± 0.17
21 | TTTTTTGTTTGAATGGTGCATTTTGTAATTATATTT | 8.965 ± 0.049
22 | ATAATATCATAATATTGTACATATTTTATTTTAAAT [XGTACX_site1115] | 8.36 ± 0.29
23 | CAACTAACATATATTCAACACACATATACCTTCAAC [CACACA_site8988] | 8.55 ± 0.46

Row | Sequence | gcPBM binding intensity (ln)
24 | GATATATTATTTGAATGTACATATTATATTTATATT [XGTACX_site907] | 8.45 ± 0.33
25 | ATTGTATATGTATATGCACACAATATATGTACTTAT [CACACA_site2611] | 8.49 ± 0.18
26 | TAACATATTATATATACATGCATACGTGAACTAATC [TGCATGCA_site888] | 8.89 ± 0.26
27 | TTTTTTTAGTTAATTAAACACACAAAAAAAAAAATA [CACACA_site9301] | 8.36 ± 0.43
28 | GTTAGAATTGTTAGGTGGTCAAAAAGGAGAAAAAAA [XGTACX_site2086] | 8.77 ± 0.31
29 | ATTATTTAATTTTATTAAAAAAAAACAAATTAACAG [GTGCAC_negctrl_site152] | 8.24 ± 0.3
30 | AAAAGAAAATTAAATTAACACACATAAATATATATA [CACACA_site8482] | 8.43 ± 0.14
31 | TTCACATACAGAAACACACACATATTTATAAATTAA [CACACA_site7699] | 8.47 ± 0.42
32 | TTTTTAATTAACTTTTTATAAATAAATAAAAATATA [GTGCAC_negctrl_site334] | 7.93 ± 0.42
33 | AAATAATATTTATACACACACACATATTTATATACA [CACACA_site6403] | 8.5 ± 0.4
34 | TTATTTTATTTTGAAGCATGCTTTTTGCTGTGATAA [TGCATGCA_site278] | 8.73 ± 0.18
35 | TTATGCGTTTGCAAAAGTACATATCTATTATTTTTA [XGTACX_site7609] | 8.62 ± 0.5
36 | GGTCTTATTTTTAGTAGTACAAATATAATATACATA [XGTACX_site6483] | 8.56 ± 0.4
37 | TTTTTTTTTTTTTGTTGTACCCATCATATATACATA [XGTACX_site4342] | 8.63 ± 0.58
38 | TATAAAAATATTTAATGTACGAATCTGTGATATATC [XGTACX_site7881] | 8.53 ± 0.42
39 | TTTTCATGTTGTAAAGCATGCTTTACTCATAAAAAA [TGCATGCA_site917] | 8.57 ± 0.3
40 | ATTATTAAAAGAAGAAGTACTTATATATTAATATTA [XGTACX_site5227] | 8.62 ± 0.37
41 | AAAATACACGCATACACACACACACGCGCACATATA [CACACA_site6448] | 8.96 ± 0.36
42 | ATATATTACATATGTGTGCACGTTCCAAAATTTTTA | 9.37 ± 0.35
43 | CTAAACAGAATTATCACACATATAAATATAAACATA [CACACA_site4560] | 8.45 ± 0.33
44 | TATATTTATTTATATACACACACTTGTATAAAAAAT [CACACA_site2036] | 8.25 ± 0.44
45 | TATCTATATGGGAACACACTCATAAATATATATCTA [CACACA_site4815] | 8.66 ± 0.48
46 | TATATACAGAAACACACACACACATATATATATATA [CACACA_site2247] | 10.1 ± 0.29

Row | Sequence | gcPBM binding intensity (ln)
47 | TTAAATATTTTTAGAGTGCATGTAATAAAAATATAA [GTGCAC_site9414] | 8.91 ± 0.2
48 | TATATCAAAATACATACACACATTTGTATATACATT [CACACA_site2696] | 8.48 ± 0.4
49 | AAAATAAATAAATACACACACACGAATATATATATA [CACACA_site1683] | 9.78 ± 0.16
50 | TTTTAAAAATAATAAATAAATAAAATTGAAGTTCCA [CACACA_negctrl_site305] | 8.23 ± 0.59
51 | AAAATTTTTAAATATTGTACTATTTATTTTTAGCAT [XGTACX_site6190] | 8.55 ± 0.4
52 | TATATATATATATTTACACACATTCATATAAATTCA [CACACA_site3532] | 9.94 ± 0.33
53 | AATATGAACGGACACACACACACAAAAAAAAAAAAA [CACACA_site5154] | 8.28 ± 0.4
54 | GCCTACAGACTTAGTAGTACATGAGAAGATATATAT [XGTACX_site2269] | 8.71 ± 0.49
55 | TTTGAATATATAAATATGCACACTTCTATTATAAAT [CACACA_site3359] | 8.3 ± 0.18
56 | TTCTTATATAAATACACACACAAAATATCTACAATG [CACACA_site4568] | 8.68 ± 0.38
57 | TATTATTTTTCCTAATGTACAAAATATATATTTTTA [XGTACX_site2727] | 8.59 ± 0.38
58 | TATATTAGAAGAAATTCACACATTCATGTAATCTTA [CACACA_site4706] | 8.07 ± 0.33
59 | ATGTTGCACAATGTTACACACACAATATATATCGTT [CACACA_site4833] | 8.92 ± 0.28
60 | AAAAAAATAAAAAGGAACGTCTATAGTTAATTTATT [CACACA_negctrl_site919] | 8.66 ± 0.46
61 | AATCGATTGGATAATATTTTTTCTCTTAATTTTTTG [GTGCAC_negctrl_site165] | 8.48 ± 0.042
62 | TTTTTTTTGTTGTTGTTGCACTTGATAGGAATGGCT [GTGCAC_site9701] | 8.68 ± 0.47
63 | CCATTTACAAAAAGGAGTACACAAATATATGTTTAA [XGTACX_site649] | 8.46 ± 0.31
64 | AAAAAAAACAGACACACACACAAATACATACACAAA [CACACA_site705] | 8.78 ± 0.57
65 | TACTTACAGATAATAACACACAAGAAAAAAATAAAA [CACACA_site4716] | 8.68 ± 0.44
66 | AATATTTATGGGTGCACACAAACATACAGATATATA [CACACA_site5810] | 9.48 ± 0.63
67 | TATATATATATCAAGTGTACTTGTGTTTGTAATATT [XGTACX_site8854] | 9.725 ± 0.049
68 | ATATAAATGTATATGACACACATATATATATATATA [CACACA_site889] | 9.91 ± 0.3
69 | TACAAATATGGACACACACACATATTTATATTTATA [CACACA_site6420] | 8.65 ± 0.51

Row | Sequence | gcPBM binding intensity (ln)
70 | AAAAAACAGACATACACACACACACGGATATTTATA [CACACA_site7570] | 8.74 ± 0.57
71 | GAATTTTTGACGATATAGGAAATAATTATCCTGAAG [XGTACX_negctrl_site61] | 8.48 ± 0.61
72 | CTGTTAATTATATATTGTACAAAAGATATGATTATA [XGTACX_site6927] | 8.49 ± 0.44
73 | TTTTTAAAAAAAAAAAAATAAAAAAAAAAAAAATAT [XGTACX_negctrl_site7] | 8.17 ± 0.54
74 | ATTTATATATTTATATGTACATATCTATACATATAT [XGTACX_site7580] | 8.96 ± 0.42
75 | TGGACCAAACGACAAAAAAAAAGCAGAAAACAAAAA [GTGCAC_negctrl_site693] | 8.88 ± 0.53
76 | AAATAAAGAATATAAATACACACTTAAATATATATT [CACACA_site4007] | 8.38 ± 0.49
77 | ATAATAAAATAAATCACACATAATATAATGTAATAT [CACACA_site6144] | 8.44 ± 0.3
78 | ACAAAAAAATAAAATATATATATATATATAATATAT [CACACA_negctrl_site805] | 8.58 ± 0.16
79 | TTTATATTAATTTGTGTAAATGCATATGATGAGCAT [XGTACX_negctrl_site254] | 8.44 ± 0.38
80 | ATATATATATATATATGTACATATAATTTTTTTTTT [XGTACX_site6948] | 10.2 ± 0.38
81 | ATAACAATTATTTATCTACACACTTTTATGTTATTT [CACACA_site7886] | 8.87 ± 0.42
82 | TAAATTTTTTTTTTGATGCACTTAGTTATTATATTT | 8.53 ± 0.36
83 | AATGGCAAAATAGGCACACACACATATACAGATATA [CACACA_site4726] | 8.82 ± 0.63
84 | AATTTTTTATACACAAGTACAAACGCGTAGTCACTT [XGTACX_site2458] | 8.54 ± 0.4
85 | ATTCCACTGTTTTAGTGTACTGGTCGTTTTTTTTTT [XGTACX_site1738] | 8.66 ± 0.44
86 | ATTAAGTCTTATATTACACACGACATTGTAATGTAA [CACACA_site528] | 8.36 ± 0.41
87 | TCCAAAATATCCTTCACACACGAACAGTTTCATTTA [CACACA_site5511] | 8.62 ± 0.53
88 | AAAAATAAAACAATTACACACATAATTTTATTTTTA [CACACA_site928] | 8.41 ± 0.31
89 | TTTATTTTATCATTTGCACACGCACCCCCACATAAA [CACACA_site8007] | 10 ± 0.12
